We go through 14 sequences from PMC5700166.

Only a part is listed here, and it is no random draw. The list includes weakly bound sequences.

In this assay the target is T1, GST-Co-NF-kB (UniProt F1ARL5).
T1 sequence: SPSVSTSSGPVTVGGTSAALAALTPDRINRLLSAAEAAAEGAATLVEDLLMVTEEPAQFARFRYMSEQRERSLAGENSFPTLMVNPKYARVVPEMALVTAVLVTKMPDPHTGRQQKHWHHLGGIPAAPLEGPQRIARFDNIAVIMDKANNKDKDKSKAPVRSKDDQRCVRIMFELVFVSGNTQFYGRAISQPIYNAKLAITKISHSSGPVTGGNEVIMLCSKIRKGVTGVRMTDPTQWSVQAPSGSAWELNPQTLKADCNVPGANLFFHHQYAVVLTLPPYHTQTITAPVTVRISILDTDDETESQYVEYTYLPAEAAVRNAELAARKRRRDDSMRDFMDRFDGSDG
Kind of assay: protein-binding microarray (PBM). As to conditions: PBM: ~300 nM protein, 6 mM HEPES pH 7.8, 80 mM KCl, 0.5 mM EDTA, 0.5 mM EGTA, 6% glycerol, 35 ng/ul poly-dIdC, 1% milk, 1 h, room temperature; Ap Aiptasia and Nv Nematostella (sea anemones) / Co Capsaspora / Aq Amphimedon (sponge) / Dm Drosophila / Hu human; RHD is the Rel homology domain; high values mean tight binding; most listed sequences are background and not binding sites; double strand, one strand shown.
Consider “CCGATTAACATCAGGGGATCCACTGATGTTAATCGGGTCTTGATTCGCTTGACGCTGCTG”, for which the binding signal worked out at 2.76 z-score.
The result for “CCGATTAACATCAATCTCCCCCATGATGTTAATCGGGTCTTGATTCGCTTGACGCTGCTG” reads 8.65 z-score.
In turn, “CCGATTAACATCAGGGGAACATATGATGTTAATCGGGTCTTGATTCGCTTGACGCTGCTG” registered a binding signal of 7.58 z-score.
The sequence “CCGATTAACATCAGATAAACCCCTGATGTTAATCGGGTCTTGATTCGCTTGACGCTGCTG” had a binding signal of 0.987 z-score.
For the sequence “CCGATTAACATCAGTATTCCCCATGATGTTAATCGGGTCTTGATTCGCTTGACGCTGCTG”, the binding signal is 7.15 z-score.
The value for “CCGATTAACATCACGTTCCCCCCTGATGTTAATCGGGTCTTGATTCGCTTGACGCTGCTG” was 9.5 z-score.
The value for “CCGATTAACATCACCAGTTTCCCTGATGTTAATCGGGTCTTGATTCGCTTGACGCTGCTG” was 3.09 z-score.
The result for “CCGATTAACATCAGGGGCTTTACTGATGTTAATCGGGTCTTGATTCGCTTGACGCTGCTG” reads 0.497 z-score; that for “CCGATTAACATCAGGACCTTCCCTGATGTTAATCGGGTCTTGATTCGCTTGACGCTGCTG”, 0.163 z-score; that for “CCGATTAACATCAGGGGGGTAGATGATGTTAATCGGGTCTTGATTCGCTTGACGCTGCTG”, 5.47 z-score.
In turn, “CCGATTAACATCAGGCATGCCCCTGATGTTAATCGGGTCTTGATTCGCTTGACGCTGCTG” yielded a binding signal of 0.827 z-score.
The value for “CCGATTAACATCAGGGCATGCCCTGATGTTAATCGGGTCTTGATTCGCTTGACGCTGCTG” was -0.315 z-score.
The value for “CCGATTAACATCATTGTCCCTTCTGATGTTAATCGGGTCTTGATTCGCTTGACGCTGCTG” was 0.55 z-score.
Consider “CCGATTAACATCAGACCTTCCCCTGATGTTAATCGGGTCTTGATTCGCTTGACGCTGCTG”, for which the binding signal amounted to 4.12 z-score.
